Laboratory results as given in patent US20260232796A1, “COMBINATION THERAPIES WITH AN ANTI-FACTOR XI/FACTOR XIA ANTIBODY” (Anthos Therapeutics, Inc., priority 2022, published 2026).

Experiments:
thrombin generation = test: Thrombin generation in platelet-rich plasma, Calibrated Automated Thrombogram; type: biochemical, human; conditions: tissue factor reagent, Antibody 1 250, 500 or 1000 nM
Protocol: (§1) Whole blood was obtained in EDTA and citrate tubes (6 healthy donors). Specimens were spiked with vehicle, Antibody 1 (250, 500, or 1000 nM), or abciximab (50 nM). Platelet aggregation was recorded following induction using collagen (1 μg/mL) or TRAP-6 (8 μM) using a multiplate impedance aggregometer. The area under the curve (AUC) for platelet aggregation was determined in arbitrary aggregation*time (AU*min). Thrombin generation was also measured at the above Antibody 1 and abciximab concentrations in platelet-rich plasma using Thrombinoscope CAT (Calibrated Automated Thrombogram; Stago CH S.A. and tissue factor reagent (1 μM); fluorescence was measured by an automated plate reader fluorometer.

platelet aggregation [1] = test: Impedance platelet aggregometry in whole blood spiked with ticagrelor +/- Antibody 1; type: cell-based, human; conditions: Antibody 1 at 125, 250, and 500 ng/mL added to ticagrelor 3 μM; ADP or TRAP-6 induction
Protocol: In the second study, whole blood was spiked with vehicle, ticagrelor (3 μM), or ticagrelor (3 μM)+Antibody 1 (125, 250, and 500 nM). Platelet aggregation was measured with the same methodology following induction by ADP (6.4 μM) or thrombin receptor activating peptide-6 (TRAP-6, 32 μM).

platelet aggregation [2] = test: Whole blood platelet aggregation, multiplate impedance aggregometer (Example 1); type: cell-based, human; conditions: Antibody 1 250, 500 or 1000 nM, vs vehicle
Protocol: as §1

platelet aggregation [3] = test: Impedance platelet aggregometry in whole blood spiked with aspirin +/- Antibody 1; type: cell-based, human; conditions: Antibody 1 at 125, 250, and 500 ng/mL added to aspirin 1 mg/mL; collagen or arachidonic acid induction
Protocol: Two studies were conducted concurrently. Blood specimens were obtained in EDTA and citrate tubes (6 healthy donors for each study). In the first study, whole blood was spiked with vehicle, aspirin (1 mg/mL), or aspirin (1 mg/mL)+Antibody 1 (125, 250, and 500 nM). Platelet aggregation was measured by impedance platelet aggregometry following induction with collagen (3.2 μg/mL) or arachidonic acid (0.5 mM) (Multiplate® analyzer, COLtest and ASPItest reagents; Roche Diagnostics International Ltd, Rotkreuz, Switzerland).

[4] = tested on: clot formation in human blood; test: Rotational thromboelastometry (ROTEM) NATEM test in whole blood in vitro; type: cell-based; conditions: for prolongation of CT (clotting time) vs baseline: 10 minutes at 37° C.
Protocol: Blood specimens were obtained in citrate tubes from 6 healthy human donors. Specimens were incubated with 15 and 30 μg/mL of Antibody 1 or vehicle for 10 minutes at 37° C. Specimens were subsequently spiked with rFVIIa at 0.5 and 1 μg/mL or vehicle control. Clot formation was monitored using ROTEM® delta analyzers and the non-activated thromboelastometry (NATEM) test using a recalcification reagent. CT (clotting time, in seconds), CFT (clot formation time, in seconds), alpha angle, etc. were measured and were compared to reference ranges provided by the manufacturer (Pentapharm GmbH, Munich, Germany).

B1: Antibody 1: high-affinity, anti-human Factor XI monoclonal antibody; heavy chain SEQ ID NO: 31, light chain SEQ ID NO: 41 (antibody)
heavy: QVQLLESGGGLVQPGGSLRLSCAASGFTFSTAAMSWVRQAPGKGLEWVSGISGSGSSTYYADSVKGRFTISRDNSKNTLYLQMNSLRAEDTAVYYCARELSYLYSGYYFDYWGQGTLVTVSSASTKGPSVFPLAPSSKSTSGGTAALGCLVKDYFPEPVTVSWNSGALTSGVHTFPAVLQSSGLYSLSSVVTVPSSSLGTQTYICNVNHKPSNTKVDKRV[skipping human IgG1 Fc with D265A P329A (EU numbers)]
light: QSVLTQPPSASGTPGQRVTISCSGSSSNIGSNDVSWYQQLPGTAPKLLIYKNYNRPSGVPDRFSGSKSGTSASLAISGLQSEDEADYYCSAWDQRQFDVVFGGGTKLTVLGQPKAAPSVTLFPPSSEELQANKATLVCLISDFYPGAVTVAWKADSSPVKAGVETTTPSKQSNNKYAASSYLSLTPEQWKSHRSYSCQVTHEGSTVEKTVAPTECS
Thrombin generation
  lag time of thrombin generation: significant delays
  time to peak concentration of thrombin generation: significant delays
Platelet aggregation [1]
  effect on platelet inhibition achieved with ticagrelor alone: did not alter
Platelet aggregation [2]; TRAP-6 8 μM
  platelet aggregation induced by TRAP-6: no inhibitory or stimulatory effects
Platelet aggregation [2]; collagen 1 μg/mL, abciximab 50 nM
  platelet aggregation induced by collagen: no inhibitory or stimulatory effects
Platelet aggregation [3]
  effect on level of platelet aggregation inhibition achieved with aspirin alone: did not attenuate or increase
[4]; Antibody 1 15 μg/mL
  decrease of alpha angle vs baseline: 10%
  prolongation of CFT (clot formation time) vs baseline: 37%
  prolongation of CT (clotting time) vs baseline: 61%
[4]; Antibody 1 30 μg/mL
  decrease of alpha angle vs baseline: 14%
  prolongation of CFT (clot formation time) vs baseline: 32%
  prolongation of CT (clotting time) vs baseline: 64%
